Reference: PubChem BioAssay (NCATS)
Several values for one entry are separate records, joined by “and”; a condition that tells them apart may be missing. Equal values may be shown once. The inconclusive results got no clear call from the source; some entries with a clear call stand among them for comparison. Where the call is inconclusive, the potency comes from a doubtful curve fit. Activity calls are given as the source filed them. Calls follow the shape of the dose curve; as a rule, active = well fitted cell-killing curve with a large enough effect; inconclusive = small, poorly fitted or top-dose-only effect, or effect the other way; inactive = no such curve, though single readings can be large or run the other way.

Assays:
[1] = Viability qHTS for spleen associated tyrosine kinase inhibitor (SYKi) naive MV4-11 cells (AID 1963823); details: MV4-11 AML viability, CellTiter-Glo luminescence, 72 h; viability (% of control): at 45 µM (top of the series); also: nearly all actives have a fitted effect of over 40% in size
In short: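 SYKi-naive MV4-11 AML cells, 500 per well, were exposed to library compounds for 72 hr at 37 C, 5% CO2. Viability was then read by CellTiter-Glo luminescence after 10 min at room temperature.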

[2] = Viability qHTS for spleen associated tyrosine kinase inhibitor (SYKi) drug resistant MV4-11 cells (AID 1963824); details: SYKi-resistant MV4-11 viability, CellTiter-Glo, 72 h; series mostly up to 45 µM; also: nearly all actives have a fitted effect of over 35% in size
In short: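 SYK-inhibitor-resistant MV4-11 AML cells were seeded at 500 per well onto compound and cultured 72 hours (37 °C, 5% CO2). CellTiter-Glo was then added, and after 10 min at room temperature, luminescence gave viability.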
Potency is read from the fitted curve at half-maximal effect; tags tell the direction and shape of the fitted curve.

SMILES: CCC(C)C(=O)Oc1cc(C)ccc1C1(COC(=O)C(C)C)CO1 (stereo not given)
- Potency [1]: active: 2.86 µM
- Potency [2]: active: 2.02 µM

SMILES: CC(C)CCCC(C)CCCC(C)CCCCC(C)CCCC(C)CCCC(C)C (stereo not given)
- Potency [1]: inactive
- Potency [2]: inactive

SMILES: OC[C@H]1O[C@H](O[C@]2(CCl)O[C@H](CCl)[C@@H](O)[C@@H]2O)[C@H](O)[C@@H](O)[C@H]1Cl
- Potency [1]: inactive
- Potency [2]: inactive

SMILES: C[C@@H]1C(=O)O[C@H](C)[C@H]1CC(=O)[C@](C)(O)[C@H]1CC[C@@]2(O)C3=CC(=O)[C@@H]4C[C@@H](O)[C@@H](O)C[C@]4(C)C3CC[C@]12C (stereo not given in full)
- Potency [1]: inactive
- Potency [2]: inactive

SMILES: COc1ccc2c(c1)CN(C(=O)CCN1CCC(Cc3ccccc3)CC1)CCS2
- Potency [1]: active: 8.93 µM
- Potency [2]: active: 8.93 µM

SMILES: C=C(C(=O)O[C@H]1C/C(C)=C/CC/C(CO)=C/[C@H]2OC(=O)C(=C)[C@H]12)C(O)CO (stereo not given in full)
- Potency [1]: active: 2.02 µM
- Potency [2]: active: 0.904 µM

SMILES: Cc1ccc(-c2cn3c4c(sc3n2)CCCC4)cc1
- Potency [1]: inconclusive: 2.31 µM [cytotoxic, full curve]
- Potency [2]: inconclusive: 8.2 µM [cytotoxic, partial curve]

SMILES: CS(=O)(=O)N1CCN(Cc2cc3nc(-c4cccc5[nH]ncc45)nc(N4CCOCC4)c3s2)CC1
- Potency [1]: inconclusive: 731 nM [cytotoxic, full curve] and inconclusive: 590 nM [cytotoxic, full curve]
- Potency [2]: active: 461 nM and active: 2.09 µM

SMILES: CC(=O)OC12CC(C)C(OC(=O)c3ccccc3)C1/C=C(/C)C(OC(=O)c1ccccc1)CC(=O)C(C)(C)/C=C/C(C)C2=O (stereo not given)
- Potency [1]: inconclusive: 3.06 µM [cytotoxic, partial curve, poor fit]
- Potency [2]: inconclusive: 1.09 µM [cytotoxic, full curve]

SMILES: COc1cc(O)c([C@@H](CC(=O)N2CC(C)CC(C)C2)c2ccc3c(c2)OCO3)c(OC)c1 (stereo not given in full)
- Potency [1]: inconclusive: 9.2 µM [cytotoxic, partial curve]
- Potency [2]: inconclusive: 14.6 µM [cytotoxic, partial curve]

SMILES: Cc1[nH]c2ccccc2c1CCNC(=O)c1ccccc1F
- Potency [1]: inconclusive: 29.1 µM [cytotoxic, single point]
- Potency [2]: inconclusive: 16.4 µM [cytotoxic, partial curve]

SMILES: C/C=C/C(=O)OC1/C=C/C(O)C(OC(C)=O)CCC(=O)OC1C (stereo not given)
- Potency [1]: inconclusive: 0.114 µM [cytotoxic, full curve, poor fit]
- Potency [2]: inconclusive: 0.36 µM [cytotoxic, full curve, poor fit]

SMILES: COc1cc(N2CCOCC2)ccc1Nc1ncc(Cl)c(Nc2ccccc2NS(C)(=O)=O)n1
- Potency [1]: active: 0.103 µM
- Potency [2]: active: 0.206 µM

SMILES: CC(=O)c1c(C)cccc1O[C@@H]1O[C@H](CO)[C@@H](O)[C@H](O)[C@H]1O
- Potency [1]: inactive
- Potency [2]: inactive

SMILES: CC(C)NCC(O)c1ccc2ccccc2c1 (stereo not given)
- Potency [1]: inconclusive: 23.7 µM [cytotoxic, single point]
- Potency [2]: inconclusive: 26.6 µM [cytotoxic, single point]

SMILES: C/C=C(\C)C(=O)O[C@H]1[C@@H](O[C@]2(COC(=O)CC(C)C)O[C@H](COC(=O)C(C)CC)[C@@H](OC(C)=O)[C@@H]2O)O[C@H](COC(C)=O)[C@@H](O)[C@@H]1O (stereo not given in full)
- Potency [1]: inconclusive: 9.68 µM [cytotoxic, single point]
- Potency [2]: inactive

SMILES: CC(=O)O[C@H]1CC[C@@]2(CI)C(=CC[C@@H]3[C@@H]2CC[C@]2(C)[C@@H]([C@H](C)CCCC(C)C)CC[C@@H]32)C1
- viability (% of control) [1]: inactive: 88.4% [at 9.25 µM]
- viability, % of control [2]: inactive: 83% [at 9.25 µM]

SMILES: CCC(CC)(NC(=O)C(C)C)C(=O)N[C@@H](CCCN=C(N)N)C(=O)NC1(C(=O)NC(c2ccc(F)cc2)c2ccc(F)cc2)CCCC1
- Potency [1]: inactive
- Potency [2]: inactive

SMILES: COC(=O)c1cc2c(C(F)(F)F)cc(-c3ccccc3)cc2n1O
- Potency [1]: inconclusive: 20.6 µM [cytotoxic, partial curve]
- Potency [2]: inconclusive: 16.4 µM [cytotoxic, single point]

SMILES: COc1cc(/C=C/CO[C@@H]2O[C@H](CO)[C@@H](O)[C@H](O)[C@H]2O)cc(OC)c1O[C@@H]1O[C@H](CO)[C@@H](O)[C@H](O)[C@H]1O
- Potency [1]: inconclusive: 2.24 µM [cytotoxic, single point]
- Potency [2]: inconclusive: 1.59 µM [cytotoxic, partial curve, poor fit]
